Test results reported in publication PMC9569496.
Results are given in words; binding and its absence hold for the method and conditions named. Binding seen in cells or lysates may run through a third protein. Some entries that bind do so weakly or less than the wild type.

Experiments:
Settings in all cases: remark: other sources report otherwise
[1] = target: T1, human cyclin H (human (endogenous in HFFs)), P51946; test: co-IP; HFFs in T175 flasks infected with HCMV AD169 WT or ORF-UL97 deletion mutants, lysed 4 d.p.i.; cyclins H and T1 immunoprecipitated with specific antibodies, pUL97 detected by Western blot; chicken Fc fragment as negative control
T1 chain: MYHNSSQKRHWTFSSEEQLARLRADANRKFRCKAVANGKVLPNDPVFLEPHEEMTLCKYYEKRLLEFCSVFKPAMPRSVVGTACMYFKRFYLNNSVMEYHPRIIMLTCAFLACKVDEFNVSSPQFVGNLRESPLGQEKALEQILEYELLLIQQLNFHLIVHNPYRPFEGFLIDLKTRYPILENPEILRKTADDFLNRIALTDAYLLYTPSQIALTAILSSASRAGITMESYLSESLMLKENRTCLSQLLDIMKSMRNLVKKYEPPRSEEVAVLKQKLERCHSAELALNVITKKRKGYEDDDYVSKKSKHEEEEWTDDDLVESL

[2] = target: human cyclin B1 (human (endogenous in HFFs)), P14635; test: co-IP; HFFs in T75 flasks infected with HCMV AD169 WT or UL97 point mutants, harvested 4-7 d.p.i.; cyclins T1, H, B1 immunoprecipitated with specific antibodies, pUL97 detected by Western blot; chicken Fc fragment as specificity control
[3] = target: T1, human cyclin H (human (endogenous in …)); test: as above

Measured: binding

B1: HCMV protein kinase pUL97, strain AD169 wild type, P16788 1-707 (enzyme)
chain: MSSALRSRARSASLGTTTQGWDPPPLRRPSRARRRQWMREAAQAAAQAAVQAAQAAAAQVAQAHVDENEVVDLMADEAGGGVTTLTTLSSVSTTTVLGHATFSACVRSDVMRDGEKEDAASDKENLRRPVVPSTSSRGSAASGDGYHGLRCRETSAMWSFEYDRDGDVTSVRRALFTGGSDPSDSVSGVRGGRKRPLRPPLVSLARTPLCRRRVGGVDAVLEENDVELRAESQDSAVASGPGRIPQPLSGSSGEESATAVEADSTSHDDVHCTCSNDQIITTSIRGLTCDPRMFLRLTHPELCELSISYLLVYVPKEDDFCHKICYAVDMSDESYRLGQGSFGEVWPLDRYRVVKVARKHSETVLTVWMSGLIRTRAAGEQQQPPSLVGTGVHRGLLTATGCCLLHNVTVHRRFHTDMFHHDQWKLACIDSYRRAFCTLADAIKFLNHQCRVCHFDITPMNVLIDVNPHNPSEIVRAALCDYSLSEPYPDYNERCVAVFQETGTARRIPNCSHRLRECYHPAFRPMPLQKLLICDPHARFPVAGLRRYCMSELSALGNVLGFCLMRLLDRRGLDEVRMGTEALLFKHAGAACRALENGKLTHCSDACLLILAAQMSYGACLLGEHGAALVSHTLRFVEAKMSSCRVRAFRRFYHECSQTMLHEYVRKNVERLLATSDGLYLYNAFRRTTSIICEEDLDGDCRQLFPE
binds: [1] | [2] | [3]
